Results on 6 molecules are retold here after PubChem BioAssay (NCI).

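Compound exposure: 48 hours, 5 concentrations, 96-well plates. GI50: concentration for 50% inhibition of growth.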 The source holds more than one record for some entries. This list holds those alone. An entry can have further records. For some assays here: The tests behind the records often covered other concentration ranges, which the source does not state; some values may only mark the edge of a range. For some assays here: Values that stand side by side are repeats in other runs, samples, wells, individuals or studies. What stands in brackets tells the records apart. The letters are not those of the source and start again with each entry.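 TGI: concentration producing complete growth inhibition.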

Some test systems named below: MCF7 breast; HOP-92 NSCLC; UACC-62 melanoma; SR leukemia; SK-MEL-5 melanoma; HCC-2998 colon; HL-60(TB) leukemia; MDA-MB-231 breast; OVCAR-5 ovarian; A549 NSCLC; PC-3 prostate; NCI-H522 lung; HT29 colon; CCRF-CEM leukemia; NCI/ADR-RES ovarian; SN12C renal; 786-0 renal; NCI-H460 lung; BT-549 breast; IGROV1 ovarian; SK-OV-3 ovarian; SF-295 CNS; NCI-H23 lung; SK-MEL-2 melanoma; UACC-257 melanoma; OVCAR-4 ovarian; M14 melanoma; EKVX NSCLC; KM12 colon; COLO 205 colon; NCI-H226 lung; HCT-15 colon; CAKI-1 renal; U251 CNS; MALME-3M melanoma; HOP-62 NSCLC; SW-620 colon; OVCAR-8 ovarian; UO-31 renal; RPMI-8226 leukemia; SF-268 CNS; LOX IMVI melanoma; MOLT-4 leukemia.

Common to all, as to test: NCI anticancer screen, dose series, 48 h

On to `COC(=O)[C@@H](C)C[C@H](Cc1ccccc1)NC(=O)c1csc([C@@H](C[C@H](C(C)C)N(C)C(=O)[C@@H](NC(=O)[C@H]2CCCCN2C)C2CC2)OC(C)=O)n1`, for which the GI50 in the experiment on MCF7 breast is 0.0442 nM and 1.65 nM; in the experiment on HOP-92 NSCLC, 0.319 nM and 9.05 µM; in the experiment on UACC-62 melanoma, 0.141 nM and 1.65 nM; in the experiment on SR leukemia, 0.0985 nM and 1.65 nM; in the experiment on SK-MEL-5 melanoma, 0.146 nM and 1.65 nM.
For the molecule `Cc1cn(-c2cc(NC(=O)c3ccc(C)c(Nc4nccc(-c5cccnc5)n4)c3)cc(C(F)(F)F)c2)cn1`, the GI50 in the experiment with HCC-2998 colon is 947 nM [sample A, mean of 2 tests] and > 10 µM [sample B, 1 test]; in the experiment with HOP-92 NSCLC, > 100 µM [sample A, 1 test] and 3.08 µM [sample B, 1 test]; in the experiment with HL-60(TB) leukemia, 1.18 µM [sample A, mean of 2 tests] and 3.19 nM [sample B, 1 test]. For the same molecule, the TGI in the experiment with HL-60(TB) leukemia is 19.7 µM [sample A, mean of 2 tests] and 1.49 µM [sample B, 1 test].
Consider `CC(=O)Nc1ccc(/C=C/C(=O)N2CC(CCl)c3c2cc(N)c2ccccc32)cc1` (stereo not given), for which the TGI was 98.2 nM and 1.55 µM in the experiment on MDA-MB-231 breast; 227 nM and 2.32 µM in the experiment with OVCAR-5 ovarian; 13.3 nM and 272 nM in the experiment on A549 NSCLC; 53.1 nM and > 100 µM in the experiment with PC-3 prostate.
For the molecule `COc1ccc2c(c1)C(=O)c1c-2n(CCCI)c(=O)c2cc([N+](=O)[O-])ccc12`, the GI50 is 413 nM and 6.23 µM with NCI-H522 lung; 288 nM and 3.66 µM with OVCAR-5 ovarian; 8.86 µM and 399 nM with IGROV1 ovarian. In addition, the TGI in the experiment with HT29 colon was 2.21 µM and > 100 µM; in the experiment with CCRF-CEM leukemia, 193 nM and 11.1 µM; in the experiment on MCF7 breast it was 338 nM and > 100 µM; in the experiment with NCI/ADR-RES ovarian it was 3.04 µM and > 100 µM; in the experiment on SN12C renal, 2.17 µM and > 100 µM; in the experiment on 786-0 renal, 298 nM and 12.7 µM. For the same molecule, the TGI in the experiment on NCI-H460 lung is 374 nM and 10.2 µM; with BT-549 breast, 397 nM and 15.2 µM; in the experiment on HOP-92 NSCLC it was 1.12 µM and 27.5 µM; with SK-OV-3 ovarian, 2.56 µM and > 100 µM.
For the molecule `S=P(N1CC1)(N1CC1)N1CC1`, the TGI in the experiment with SF-295 CNS is listed as 45.7 µM, 334 µM, 555 µM; with NCI-H23 lung, 24.7 µM, 237 µM, 526 µM; with SK-MEL-2 melanoma, 47.5 µM, 440 µM, 734 µM; with UACC-257 melanoma, 60 µM, 394 µM, 616 µM; in the experiment on OVCAR-4 ovarian it was 44.3 µM, 439 µM, 543 µM; with M14 melanoma, 33 µM, 318 µM, 708 µM. The TGI in the experiment with EKVX NSCLC is given as 35.7 µM, 597 µM, 701 µM; with SN12C renal, 72.9 µM, 484 µM, 891 µM; with KM12 colon, 62.2 µM, 424 µM, 663 µM; with COLO 205 colon, 42.7 µM, 353 µM, 591 µM; in the experiment on HCC-2998 colon, 37.2 µM, 252 µM, 395 µM; in the experiment with OVCAR-5 ovarian, 50.7 µM, 385 µM, 705 µM. Moreover, the TGI with NCI-H226 lung was 37.9 µM, 342 µM, 561 µM; in the experiment with HCT-15 colon it was 37.4 µM, 534 µM, 455 µM; in the experiment with A549 NSCLC it was 45.2 µM, 286 µM, 573 µM; in the experiment on CAKI-1 renal it was 72.4 µM, 432 µM, 838 µM; in the experiment with U251 CNS, 41.3 µM, 262 µM, 547 µM; in the experiment on MALME-3M melanoma, 29.2 µM, 326 µM, 590 µM. Further, the TGI was 24.2 µM, 149 µM, 396 µM in the experiment on UACC-62 melanoma; 20.6 µM, 219 µM, 673 µM in the experiment with HOP-62 NSCLC; 36.2 µM, 241 µM, 367 µM in the experiment with SK-MEL-5 melanoma; 40.4 µM, 379 µM, 31.7 µM in the experiment on HL-60(TB) leukemia; 58.9 µM, 667 µM, 739 µM with SW-620 colon.
Regarding `C/C(=C\c1csc(C)n1)[C@@H]1C[C@@H]2O[C@]2(C)CCC[C@H](C)[C@H](O)[C@@H](C)C(=O)C(C)(C)[C@@H](O)CC(=O)O1`, the TGI in the experiment on MDA-MB-231 breast is < 0.1 nM and > 100 µM; with OVCAR-8 ovarian it was < 0.1 nM and > 100 µM; in the experiment on UACC-257 melanoma, 812 nM and > 100 µM; in the experiment with UO-31 renal it was 1.62 nM and > 100 µM; with RPMI-8226 leukemia, 0.119 nM and > 100 µM; in the experiment on M14 melanoma, 4.38 nM and 23.4 µM. Besides, the TGI is 0.112 nM and 10.6 nM with NCI/ADR-RES ovarian; 266 nM and > 100 µM in the experiment with SF-268 CNS; 0.772 nM and 678 nM with NCI-H226 lung; 0.219 nM and > 100 µM in the experiment on LOX IMVI melanoma; 808 nM and > 100 µM with BT-549 breast; 151 nM and > 100 µM in the experiment on CAKI-1 renal. The TGI was 272 nM and > 100 µM in the experiment on MOLT-4 leukemia; 5.61 nM and 56.3 µM with UACC-62 melanoma; < 0.1 nM and 50 µM in the experiment with SK-OV-3 ovarian; < 0.1 nM and 13 µM in the experiment on SK-MEL-5 melanoma.
